Sequences with one replicate were seen in a single cluster, so their values are uncertain.
test system: ATP; assay: switch fluorescence ratio, 500 uM ATP over buffer (Cy3 cluster intensity, sum of 5 cycles each) (fold (ratio)); higher = stronger signal-on switching upon ATP binding; sequences stand for … in TCGTCGGCAGCGTCAGATGTGTATAAGAGACAGTTTTTTTTTTTTTTTTTTTTTTTTT…TC; conditions: aptamer strand: ATP DNA aptamer (quencher-CACCTGGGGGAGTATTGCGGAGGAAGG + anchor), 100 nM annealed; ATP concentration: 500 uM; one replicate
Method in brief: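 Cy3-labelled switching-strand clusters on a modified Illumina MiSeq flow-cell were annealed to 100 nM quencher-labelled ATP aptamer and imaged first in selection buffer, then after 15 min with 500 uM ATP at 22 °C. NaOH stripping and re-annealing separated each of five buffer/ATP cycles, and clusters outside 100-1000 RFU were excluded. The fluorescence ratio sums target-cycle Cy3 intensity over buffer-cycle Cy3 intensity per cluster and averages it per switch-domain sequence.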
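Also: ATP exposure 15 min at 22 °C before imaging.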

Sequence	switch fluorescence ratio
GCGAATAGCA	0.987
GCGAATG	1.03
GCGAATGATC	1.03
GCGACAGGTG	2.13
GCGACCAGTC	1.05
GCGACCTGAT	1.05
GCGACGAAGA	1.08
GCGACGATAG	1.02
GCGACGGCCG	1.02
GCGACTGAGG	0.948
GCGAGAAACG	1.02
GCGAGATGTA	0.995
GCGAGTATAA	0.994
GCGATATCT	1.12
GCGATGCACG	1.12
GCGATGTGG	1.02
GCGATTTCCG	1.04
GCGCACTTTA	1.02
GCGCCGTATT	0.991
GCGCCGTTGT	1.02
GCGCCTCGGA	1
GCGCGACATC	1.23
GCGCGCACGT	1.02
GCGCGCCTAA	1.05
GCGCGCGCCC	0.958

Sequence	switch fluorescence ratio
GCGCGCTAAT	0.981
GCGCGGAAGT	1.02
GCGCGGTTAG	0.998
GCGCGTACCT	1.05
GCGCGTACGG	1.04
GCGCGTATGG	1.01
GCGCTAGGGA	1
GCGCTCGTAG	1.01
GCGCTGAGGT	0.963
GCGCTGTACG	1.2
GCGCTTAGGA	1.04
GCGCTTAGT	1.05
GCGCTTATTT	0.981
GCGCTTGTTC	1.01
GCGCTTTCGG	1.02
GCGCTTTGGG	1.03
GCGGAACGAA	1.01
GCGGAACGCA	0.99
GCGGAAGAAG	0.995
GCGGACAGAT	1.02
GCGGACCTGC	1.03
GCGGAGCCTG	0.98
GCGGAGCGGA	0.979
GCGGAGTGCT	1.05
GCGGATCTCA	1.04

Sequence	switch fluorescence ratio
GCGGCCCATC	1.01
GCGGCCGGC	1.09
GCGGCCTGCA	1.04
GCGGCCTGTG	1.05
GCGGCGAGAT	1.01
GCGGCGTGGT	0.991
GCGGGACTTA	1.06
GCGGGATACT	1.99
GCGGGCCAGG	1.17
GCGGGCTTCT	0.968
GCGGGGCTTC	0.977
GCGGGGGAGA	1.04
GCGGGGGTAT	0.973
GCGGGGTGAC	1.08
GCGGGTCTCC	1.02
GCGGGTGGTT	1.03
GCGGGTGTGG	1.08
GCGGGTTGGT	1.02
GCGGTAAGCT	1
GCGGTCAATC	1.12
GCGGTCCGCA	1.07
GCGGTCCGTG	0.986
GCGGTCTCTC	1.02
GCGGTGGACT	1.01
GCGGTTAAGA	0.991

Sequence	switch fluorescence ratio
GCGGTTTACG	1
GCGGTTTATA	0.988
GCGTAAGAAG	1.03
GCGTAATCTG	0.995
GCGTAATGGC	1.11
GCGTACCTGC	0.945
GCGTAGTGGG	1.03
GCGTATTTTC	1.02
GCGTCGTCCT	0.962
GCGTCTGATG	0.978
GCGTGACTTA	0.996
GCGTGCACCT	1.01
GCGTGCCCC	1.03
GCGTGCCTCC	1.21
GCGTGTATAG	1.01
GCGTGTCGGA	0.999
GCGTGTGGAG	1.01
GCGTGTTGAG	1.02
GCGTTACAGT	1.05
GCGTTACCGC	1
GCGTTAGTCG	0.979
GCGTTCAAGT	0.963
GCGTTGATGC	1.03
GCGTTGGTTT	0.998
GCGTTGTTTC	1.03

Sequence	switch fluorescence ratio
GCGTTTCACC	1.01
GCGTTTGGCG	1.12
GCGTTTTAAG	1.02
GCGTTTTCTT	0.99
GCGTTTTTGC	1.03
GCTAAAAACG	0.928
GCTAAATCAA	1.03
GCTAACGTAA	1.3
GCTAAGGTGG	1.01
GCTAAGTATC	1.02
GCTAATAGAG	0.981
GCTAATCCT	1.1
GCTAATTAGC	0.968
GCTAATTGAG	1.02
GCTACAATGA	1.02
GCTACCAAGT	1.04
GCTACCAGCA	1.02
GCTACCTGTT	1.05
GCTACGGCAA	1.25
GCTACGGGCG	1.01
GCTACGGTGG	1.02
GCTACTAGTT	1
GCTACTGTAT	1.15
GCTACTTGCG	1.01
GCTAGAAGAT	0.977

Sequence	switch fluorescence ratio
GCTAGCGAAA	0.973
GCTAGGAAA	0.969
GCTAGGCGGC	1.03
GCTAGGGCTG	1.01
GCTAGGGTAC	1.05
GCTAGGTCTG	0.972
GCTAGTACAA	1.03
GCTAGTGTCC	1.04
GCTAGTTAAC	0.967
GCTAGTTCCA	1.06
GCTATCACTC	1.24
GCTATCATGT	0.976
GCTATCCATT	1.05
GCTATCCGAA	1.02
GCTATGCATG	1.01
GCTATGTTGA	1
GCTATTCAC	1.12
GCTATTCATA	1
GCTATTCGTG	0.984
GCTATTCTAA	1
GCTATTGTA	0.993
GCTCAAATTG	0.952
GCTCAAGGCA	1.01
GCTCAATGCG	1.02
GCTCAATGTA	0.955

Sequence	switch fluorescence ratio
GCTCATAACT	1.03
GCTCATAGGG	0.982
GCTCCAACTT	1.1
GCTCCCCGAT	1.9
GCTCCGGCTT	1.1
GCTCCGGGAG	1.07
GCTCCTAGGT	1.08
GCTCGAATTT	1.09
GCTCGCACTG	1.02
GCTCGCCCAG	3.54
GCTCGCGGTG	1.05
GCTCGGGAGG	0.966
GCTCGGTGCG	0.922
GCTCGTCGTA	0.989
GCTCGTCGTG	0.974
GCTCTATCAA	1.13
GCTCTATTTG	0.982
GCTCTCTAAT	1.05
GCTCTGCAGG	1.43
GCTCTGCCTT	1.11
GCTCTGGACA	1.09
GCTCTTCATT	0.968
GCTCTTTCGC	1.03
GCTGAAGCGC	0.976
GCTGACTGAG	0.981

Sequence	switch fluorescence ratio
GCTGAGGCAC	0.99
GCTGAGTGTA	1.04
GCTGCAAGC	1.07
GCTGCATTCC	1.44
GCTGCGAATG	0.991
GCTGCTGCG	0.943
GCTGCTTTCG	0.979
GCTGGACGTC	1.04
GCTGGCCTTG	1.01
GCTGGTGAGG	0.986
GCTGGTTGAG	1.02
GCTGTAGGCA	1.01
GCTGTCCCCA	0.984
GCTGTGGTGA	0.99
GCTGTGGTGG	1.03
GCTGTGTCCT	0.985
GCTTACGCAT	1.13
GCTTACGTTC	1.02
GCTTACTTTC	1.02
GCTTAGTCAA	1
GCTTATAAAA	0.99
GCTTCAATTG	1.03
GCTTCACGC	1.08
GCTTCAGACG	1.11
GCTTCATCTG	1.22
